Our source for the z-score values is PubChem BioAssay AID488969 (Vanderbilt High Throughput Screening Facility, 2010).

Molecules are shown by their SMILES. Over roughly 110,000 compounds, “z-score” has its median near -0.1; the highest 2% begin near 2. The list shows a part of the results. Active and inactive are the calls of the source.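 Rule for the calls: active = z-score in the third read window above 3 or below -3; inactive = the rest.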

The experiment concerns the target Metabotropic glutamate receptor 8 (Rattus norvegicus) (UniProt P70579). In words: rat mGluR8 modulators via GIRK flux, primary screen, cell-based, thallium flux, HTS (AID 488969). The following applies: HEK293 rat mGluR8, GIRK (G protein-gated inwardly rectifying potassium channel) thallium flux, FluoZin2; at 10 µM; stronger effect = higher value; submaximal glutamate (EC20) added with thallium.
Chain of UniProt P70579 (P70579 whole entry, looked up): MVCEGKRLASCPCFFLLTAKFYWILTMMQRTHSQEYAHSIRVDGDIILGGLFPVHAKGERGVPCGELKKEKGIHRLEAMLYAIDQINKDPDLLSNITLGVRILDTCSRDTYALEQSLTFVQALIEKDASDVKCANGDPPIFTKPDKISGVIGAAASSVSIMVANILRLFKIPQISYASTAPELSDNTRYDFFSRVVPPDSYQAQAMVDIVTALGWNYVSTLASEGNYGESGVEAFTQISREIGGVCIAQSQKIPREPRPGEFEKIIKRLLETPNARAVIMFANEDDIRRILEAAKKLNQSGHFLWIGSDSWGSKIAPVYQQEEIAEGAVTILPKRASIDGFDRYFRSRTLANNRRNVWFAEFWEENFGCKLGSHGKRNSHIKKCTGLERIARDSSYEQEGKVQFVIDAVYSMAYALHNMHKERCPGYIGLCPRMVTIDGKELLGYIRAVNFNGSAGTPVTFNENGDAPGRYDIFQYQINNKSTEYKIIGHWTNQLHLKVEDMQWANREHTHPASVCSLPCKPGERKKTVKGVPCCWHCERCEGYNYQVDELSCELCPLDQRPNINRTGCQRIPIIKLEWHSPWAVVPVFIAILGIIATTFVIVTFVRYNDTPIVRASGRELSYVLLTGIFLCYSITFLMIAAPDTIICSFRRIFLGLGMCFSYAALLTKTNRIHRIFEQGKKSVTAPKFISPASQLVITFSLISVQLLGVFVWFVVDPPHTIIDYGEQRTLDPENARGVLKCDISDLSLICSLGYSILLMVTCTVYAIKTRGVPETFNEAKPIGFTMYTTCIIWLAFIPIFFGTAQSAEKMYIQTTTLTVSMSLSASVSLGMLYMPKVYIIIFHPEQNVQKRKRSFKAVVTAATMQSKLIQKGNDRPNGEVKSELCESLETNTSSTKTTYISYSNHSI
`Cc1ccc(-c2noc(CCC(=O)N3CCCC3)n2)cc1`: the z-score was -0.236.
As for `O=C(CCCCCN1C(=O)c2ccccc2C1=O)Nc1ccccc1`, the figure is -0.0897.
As for `CC(NC(=O)c1cccs1)C(c1cccs1)N1CCN(Cc2ccccc2)CC1` (stereo unspecified), the figure is -0.533; as for `COc1ccc(CCNC(=O)COc2ccc(S(=O)(=O)NC3CCCCC3)cc2Cl)cc1`, -0.000925.
For `Cn1nc(C(F)(F)F)c2cc(C(=O)NC3CC3)sc21`, the z-score was found to be 0.0929.
As for `C[N+](C)(C)CCNC(=O)c1c(O)c2c([nH]c1=O)CCCC2`, the figure is 0.798; as for `CCc1nnc(NC(=O)c2ccc(-c3cccc(C(F)(F)F)c3)o2)s1`, -1.43; as for `O=C(Nc1nccs1)C1CCN(S(=O)(=O)c2ccc(Cl)c(C(F)(F)F)c2)CC1`, 0.0753.
For `CC(=O)N1CC2(C)CN(C(C)=O)CC(C)(C1)C2` the value was -0.26; for `CC(C)[C@H](NS(=O)(=O)c1ccccc1)C(=O)OCn1nnc2ccccc2c1=O`, 0.23.
As for `Cc1ccc(-c2nn(-c3ccccc3)c3[nH]c(=O)c(CNCc4ccccc4)cc23)cc1`, the figure is -0.221; as for `CCOC(=O)c1ccc(NC(=O)CC2NCCNC2=O)cc1` (stereo unspecified), -0.0898; as for `C=CCc1c(C)nc(SC)nc1Nc1ccc(C)cc1`, -0.584.
As to `O=C(Cn1cnc2c(nnn2-c2ccc(F)cc2)c1=O)NCc1ccco1`, the z-score was -0.127.
Turning to `Cc1nn2c3ccccc3nc2c2ccccc12`, the z-score is -1.65.
As for `NC(=S)N/N=C/c1ccc(C(F)(F)F)cc1`, the figure is 0.721; as for `COc1ccc(C2CC23N=C(c2ccccc2)OC3=O)cc1` (stereo unspecified), -0.00853.
`Cc1nn(-c2ccccc2)c(Cl)c1/C=C(\CC(=O)O)c1nc2ccccc2s1` registered a z-score of 0.0315.
For `O=C(c1ccc(Cl)c(Cl)c1)c1cnc(Nc2ccccc2)s1` the value was -0.0234; for `FC(F)(F)c1nc2ccccc2n2c(-c3ccc(Cl)cc3)nnc12`, -0.021; for `O=C(O)c1ccc(NS(=O)(=O)c2ccc3nnn(O)c3c2)cc1`, -0.361.
Consider `COc1cccc(N2CCN(C(=S)NCc3ccco3)CC2)c1`, for which the z-score is -0.184.
As for `CCOc1cc(/C=N/NS(=O)(=O)c2ccccc2)ccc1OS(=O)(=O)c1ccc(C)cc1`, the figure is -0.352; as for `CCOn1c(SCC)nc2ccccc2c1=O`, -0.299.
In turn, `Cc1cc(NC(=O)C2CCCC2)n(-c2nc3ccccc3[nH]2)n1` had a z-score of -0.232.
For `O=c1cc(Nc2ccc3c(c2)OCO3)[nH]c(=O)n1-c1ccc(Br)cc1` the value was 0.146.
As for `O=C(CCN1C(=O)c2ccccc2C1=O)Nc1cccnc1`, the figure is -0.201; as for `CCc1ccc(C(=O)CSc2nnc(C)c(=O)[nH]2)cc1`, -0.00147; as for `O=C(NCC(=O)N(Cc1ccccc1)C(C(=O)NCC1CCCO1)c1ccccc1)c1cccs1` (stereo unspecified), -0.243.
As for `c1ccc2c(c1)nnn2-c1ncnc2sc3c(c12)CCCC3`, the figure is 0.556.
`Cc1cccc(-n2c(Cc3cc(=O)[nH]c(=O)[nH]3)nnc2SCC(=O)NCC2CCCO2)c1` (stereo unspecified) gave a z-score of -0.0137.
For `Cc1c(Cl)c(=O)oc2cc(OC(C)C)ccc12` the value was -0.125; for `O=C(Nc1ccccn1)c1cccc(S(=O)(=O)N2CCCCC2)c1`, -1.
For `CN(C)c1ncc(S(=O)(=O)c2ccc(Cl)cc2)c(-c2ccccc2)n1` the value was -0.204.
Compound `COCCn1c(Cc2ccccc2)nnc1SCC(=O)N1CCCCC1C` (stereo unspecified) displayed a z-score of -0.132.
As for `Fc1ccc(Cn2nnnc2C(c2cccs2)N2CCCCCC2)cc1` (stereo unspecified), the figure is 0.381; as for `COc1ccc(Cl)cc1NS(=O)(=O)c1ccc(OC)c(OC)c1`, -0.0674.
For `COc1ccc2nc(NC(=S)N(C)C)sc2c1` the value was active: 14.8; for `CC(C)(C)Nc1nc(NCc2cccnc2)nc(N2CCOCC2)n1`, -0.236.
Compound `C[N+](C)(C)CC/C=C1/c2ccccc2CSc2ccccc21` had a z-score of -0.226.
As for `Cc1nc(Nc2ccc3c(c2)OCO3)c2oc3ccccc3c2n1`, the figure is -0.335.
With `COc1ccc(C(=O)/C=C/c2ccc(N3CCCCC3)c([N+](=O)[O-])c2)c(OC)c1`, the z-score was -0.161.
As for `COc1cnc(-c2ccccc2)nc1Oc1ccc(C(C)(C)C)cc1`, the figure is -0.0375; as for `CCNC(=O)CC1C(=O)N(C)C(=S)N1NC(=O)c1ccc(Cl)cc1` (stereo unspecified), -0.031.
For `O=[N+]([O-])c1cc(S(=O)(=O)C(F)(F)F)ccc1Sc1nc2ccccc2s1` the value was 0.0462.
As for `Cc1cccc(C(=O)NCCCN2CCCC2=O)c1`, the figure is -0.137.
As to `N#CCCN(Cc1cccnc1)S(=O)(=O)c1ccc(S(=O)(=O)N2CCCCCC2)cc1`, the z-score was -1.43.
For `CCOCCCNC(=O)C(=O)NCCCOCC` the value was -0.334; for `CN1CCCCCC1=Nc1ccccc1C#N`, 0.245.
For `CS(=O)(=O)Nc1ccc2c(c1)C(=O)OC2` the value was 0.424; for `O=S(=O)(c1ccc2nc(COc3ccc(Cl)cc3Cl)[nH]c2c1)N1CCOCC1`, -0.748.
`CC(=O)Nc1ccc(Oc2ccc(-c3noc(C)n3)cc2)cc1` gave a z-score of 0.104.
In turn, `O=C(c1ccc(N2CCCC2=O)cc1)N1CCN(c2ccccc2)CC1` had a z-score of -0.556.
Compound `O=C(COC(=O)C1CCN(S(=O)(=O)c2ccc3c(c2)OCCO3)CC1)Nc1ccccc1OC(F)F` showed a z-score of -0.0924.
`N#Cc1cn(-c2ccccc2)nc1-c1ccc2c(c1)OCCO2` yielded a z-score of -0.106.
As for `CSc1sc(C(=O)O)c(C)c1C(C)=O`, the figure is -0.486.
In the case of `Cc1cc2ncn(/N=C/c3ccc([N+](=O)[O-])o3)c2cc1C`, the z-score amounted to 0.239.
For `COc1cccc(NS(=O)(=O)c2ccc3c(c2)n(C)c(=O)c(=O)n3C)c1` the value was 0.179; for `Cc1cccc(N2CC(=O)N(c3cccc(C)c3)CC2=O)c1`, -0.269.
The compound `CCOc1cc(C2NC(=O)NC(c3ccccc3)=C2C(C)=O)ccc1OCC(N)=O` (stereo unspecified) registered a z-score of -0.0384.
As for `O=C(Oc1ccc(Cl)c2cccnc12)N1CCCCCC1`, the figure is -0.103; as for `C/C(=N/NC(=O)c1ccoc1C)c1cccc(NC(=O)C(F)(F)F)c1`, -0.552; as for `O=[N+]([O-])c1ccc(C2Nc3cccc4cccc(c34)N2)cc1`, -0.131.
For `C[C@@]12CC(=O)NC1N(C(=O)c1cccc(C(F)(F)F)c1)C(c1ccccc1OC(=O)c1cccc(C(F)(F)F)c1)C2` (stereo partly specified) the value was -0.4; for `CSc1nccc(Oc2cccc(C#N)c2)n1`, -0.149.
Consider `CSc1ccc(S(=O)(=O)NCc2ccccc2Cl)cc1`, for which the z-score is -2.48.
For `COc1ccc(-c2nc(NC(=O)c3ccc(OCC(=O)Nc4ccc(F)cc4)c(OC)c3)sc2C)cc1` the value was -0.143; for `O=C(/C=C/c1ccc2c(c1)OCO2)N1CCN(c2ccc(Cl)cc2)CC1`, 0.167.
As for `CS(=O)(=O)N(CC(=O)N1CCCCCC1)Cc1ccc(Cl)cc1`, the figure is -0.225.
For the compound `COc1ccc(S(=O)(=O)CC(O)CN2CCCC2=O)cc1` (stereo unspecified), the z-score was found to be 0.0398.
For `NC(=O)NC(=O)COC(=O)CCCc1c[nH]c2ccccc12` the value was 0.245; for `CCOc1cc(C2C(C#N)=C(N)Oc3n[nH]c(C)c32)ccc1OCCN1CCOCC1` (stereo unspecified), -0.102.
As for `CCCc1nc2ccc(NC(=O)c3cccs3)cc2c(=O)n1Cc1ccc(Cl)cc1`, the figure is -0.155; as for `Cc1cccc(N2CCCn3c2nc2c3c(=O)n(CCN3CCOCC3)c(=O)n2C)c1`, -0.753; as for `Cc1ccc(OCC(=O)NC(=S)Nc2cccc(C)n2)cc1`, 1.99.
`CC(=O)Nc1cccc(NC(=O)C2CC(=O)N(c3ccc(C)cc3)C2)c1` (stereo unspecified) returned a z-score of -0.0638.
For `COc1ccc(N2CCN(CC(=O)Nc3cccc(S(=O)(=O)N4CCOCC4)c3)CC2)cc1` the value was -0.151; for `C=CC[N+]1(CC#CCOC(c2ccccc2)c2ccccc2)CCOCC1`, 0.0259; for `Cn1c(SCC(=O)NCCc2ccccc2)nnc1-c1ccco1`, -0.047.
For `CCN(CC)S(=O)(=O)c1ccc(C(=O)NCCc2cc3c(OC)ccc(OC)c3[nH]c2=O)cc1` the value was -0.217.
For `COc1ccc(CN2C(=O)Cc3c2nc(N)c2c(N)nc(N4CCCCC4)c(C#N)c32)cc1` the value was -0.113; for `O=C(CCn1nnc2ccccc21)Nc1nnc(Cc2ccccc2)s1`, -0.361.
Regarding `COc1ccc(CN(CCC(c2ccccc2)C2CCOC(C)(C)C2)C(C)=O)cc1` (stereo unspecified), the z-score was -0.06.
For `COCC(=O)Nc1ccccc1C(=O)Nc1ccc(OC)cc1` the value was 0.304; for `CS(=O)(=O)N(Cc1ccco1)Cc1ccccc1Cl`, 0.604.
For `COc1ccc(Br)cc1/C=N/NC(=O)c1ccc(COc2ccc3c(c2)CCC3)o1` the value was -0.107.
For `C=CCNC(=O)c1ccc(-c2nc(-c3ccccc3)cs2)cc1` the value was 0.133; for `CCCn1c(C(O)c2ccc(OC)cc2)nc2ccccc21` (stereo unspecified), 0.131; for `Cn1c(CCNC(=O)c2ccccc2F)nnc1SCc1nc2ccccc2c(=O)[nH]1`, 0.0964.
In turn, `Cc1nn(C(C)C(=O)N2CCCCC2)c(=O)c2c1sc1ccccc12` (stereo unspecified) displayed a z-score of -0.115.
For `O=C(Nc1ccccc1Br)C1CC(=O)N(c2ccc3c4c(cccc24)CC3)C1` (stereo unspecified) the value was -0.441.
For the compound `c1cncc(-c2nnc3n2CCC3)c1`, the z-score worked out at 0.227.
As for `CC(CNc1ccccc1O)C(=O)O` (stereo unspecified), the figure is 0.108.
For `Cc1occc1C(=O)NNC(=S)Nc1cccc([N+](=O)[O-])c1` the value was -0.138.
As for `CCCCn1nc2cc(C(=O)NCc3ccc(C(F)(F)F)cc3C(F)(F)F)ccc2c1OCC`, the figure is -0.313; as for `CC(C(=O)Nc1cccc([N+](=O)[O-])c1)n1nnc2ccccc21` (stereo unspecified), -0.37; as for `COCCCNC(NC(=O)c1ccc(C)cc1)C(Cl)(Cl)Cl` (stereo unspecified), -0.126.
For `O=C(CN(Cc1ccco1)C(=O)CNS(=O)(=O)c1ccc(Cl)cc1)NCc1ccc(F)cc1`, the z-score turned out to be 0.341.
On to `COc1cc2ccccc2cc1C(=O)Nc1ccccc1N1CCN(S(C)(=O)=O)CC1`, for which the z-score was 0.316.
Regarding `C=CCn1nnc2sc3c(c2c1=O)CCC(C)C3` (stereo unspecified), the z-score is -0.544.
For `O=C(Nc1ccc(SC(F)F)cc1)c1cccc2nc3ccccc3nc12` the value was -0.355; for `O=C1CC(c2ccccc2)n2nc(NC(=O)c3cccnc3)nc2N1` (stereo unspecified), 0.141; for `COc1ccccc1C(=O)NCC(=O)Nc1ccccc1`, -0.213.
For `Nc1cc(-c2ccccc2)ccc1O` the value was 0.539; for `O=C(NC(=S)NNC(=O)c1cccs1)c1ccco1`, 1.08.
With `CC(C)CCN(C)C1CCN(S(=O)(=O)c2ccc(F)cc2)CC1`, the z-score was -0.527.
The compound `CCNC(=S)Nc1cc(Cl)ccc1Oc1ccccc1` displayed a z-score of 0.269.
As for `CC(=O)Nc1ccc(NC(=O)C(C)OC(=O)CCC(=O)c2ccc(F)cc2)cc1` (stereo unspecified), the figure is 0.0797; as for `O=C1c2oc3ccccc3c(=O)c2C(c2cccc(O)c2)N1c1ccccn1` (stereo unspecified), -0.576; as for `Oc1ccccc1C=NC1=NN(c2cccc(C(F)(F)F)c2)CC1`, 0.167.
For `CCOC(=O)C1=C(NC(=S)NC(=O)c2ccccc2)c2ccccc2CC1(C)C` the value was active: 5.58.
